Experimental data from patent US20220389066A1, “POLYPEPTIDES” (Affibody AB, priority 2019, published 2022).

Assays:
b-boxA(disulfide) = target: T1, b-boxA(disulfide) (Homo sapiens, UniProt P09429); assay: ELISA screening against the disulfide form of A-box; assay type: binding; conditions: target concentration 1000 nM; at least 3× the blank control
T1 construct: purchased HMGBiotech Srl, Milano, Italy
T1 sequence (P09429 1-89): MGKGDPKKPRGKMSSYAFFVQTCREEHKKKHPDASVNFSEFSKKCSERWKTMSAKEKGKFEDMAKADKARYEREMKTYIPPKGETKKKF
Protocol: (§1) ELISA screening of Z variants against reduced A-box and B-box: The binding of Z variants to HMGB1 was analyzed in ELISA assays. Half-area 96-well ELISA plates (Greiner, cat. no. 675061) were coated at 4° C. overnight with 2 μg/ml of an anti-ABD goat antibody (produced in-house) diluted in coating buffer (50 mM sodium carbonate, pH 9.6; Sigma, cat. no. C3041). The antibody solution was poured off and the wells were washed in water and blocked with 100 μl of PBSC (PBS supplemented with 0.5% casein; Sigma, cat. no. C8654) for 1-3 h at RT. The blocking solution was discarded and 50 μl periplasmic solutions, diluted 1:16 with PBST 0.05%, were added to the wells and incubated for 1.5 to 2.5 h at RT under slow agitation. As a negative control, periplasmic ABD was added. The supernatants were poured off and the wells were washed 4 times with PBST 0.05%. Then, 50 μl of either b-GST-boxA(red), at a concentration of 2 nM, or b-GST-boxB(red), at a concentration of 100 nM, in PBSC+1-2 mM DTT, was added to each well of A-box binding Z-variants or B-box binding Z-variant, respectively. The plates were incubated for 1 h at RT followed by washes as described above. Streptavidin conjugated HRP (Thermo Scientific, cat. no. N100) diluted 1:30,000 in PBSC+1-2 mM DTT, was added to the wells and the plates were incubated for approximately 45 min. After washing as described above, 50 μl ImmunoPure TMB substrate (Thermo Scientific, cat. no. 34021) was added to the wells and the plates were treated according to the manufacturer's recommendations. The absorbance at 450 nm was measured using a multi-well plate reader, Victor3 (Perkin Elmer).
(§2) ELISA screening of Z variants against the disulfide form of A-box and against HMGB1: To find out if selected A-box binding Z variants could also bind the disulfide form of HMGB1, A-box binding variants were screened in the same setup as described above against b-boxA(disulfide) at a concentration of 1000 nM and b-HMGB1(disulfide) at a concentration of 100 nM in PBSC.).

b-HMGB1(disulfide) = target: T2, b-HMGB1(disulfide) (Rattus norvegicus, UniProt P63159); assay: ELISA screening against HMGB1(disulfide); assay type: binding; conditions: target concentration 100 nM; at least 3× the blank control
T2 construct: purchased HMGBiotech Srl, Milano, Italy
T2 sequence (P63159 1-215): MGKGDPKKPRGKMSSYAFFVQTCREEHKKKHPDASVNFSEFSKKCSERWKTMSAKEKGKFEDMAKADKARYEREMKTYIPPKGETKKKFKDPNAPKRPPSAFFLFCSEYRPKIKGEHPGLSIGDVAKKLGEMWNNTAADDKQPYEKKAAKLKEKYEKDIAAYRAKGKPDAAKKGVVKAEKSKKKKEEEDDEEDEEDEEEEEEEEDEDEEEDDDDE
Protocol: as §1, §2

[1] = Circular dichroism (CD) spectroscopy, variable temperature measurement; assay type: physicochemical; conditions: His6-tagged Z variants; CD at 221 nm, 20 to 80-90° C.
Protocol: Circular dichroism (CD) spectroscopy analysis: The His6-Z variants produced in Example 2 were diluted to 25 μM in PBS or H2O. A CD spectrum at 250-195 nm was obtained at 20° C. In addition, a variable temperature measurement (VTM) was performed to determine the melting temperature (Tm). In the VTM, absorbance was measured at 221 nm while the temperature was raised from 20° C. to 80° C. (in some cases to 90° C.), with a temperature slope of 5° C./min. A new CD spectrum was obtained at 20° C. after the heating procedure, in order to study the refolding ability of the Z variants. The CD measurements were performed on a Jasco J-810 spectropolarimeter (Jasco Scandinavia AB) using a cell with an optical path length of 1 mm.
Circular dichroism (CD) spectroscopy analysis: The measurements were performed essentially as described in Example 3.

b-GST-boxA(red) = target: T3, b-GST-boxA(red) (Homo sapiens, UniProt P09429); assay: ELISA screening of Z variants against reduced A-box; assay type: binding; conditions: target concentration 2 nM; periplasmic Z-ABD fusion; at least 3× the blank control
T3 construct: purchased HMGBiotech Srl, Milano, Italy
Protocol: as §1

b-GST-boxB(red) = target: T4, b-GST-boxB(red) (Homo sapiens, UniProt P09429); assay: ELISA screening of Z variants against reduced B-box; assay type: binding; conditions: target concentration 100 nM; periplasmic Z-ABD fusion; at least 2.3× the blank control
T4 construct: purchased HMGBiotech Srl, Milano, Italy
Protocol: as §1, with “Streptavidin conjugated HRP (Thermo Scientific, cat. no. N100) diluted 1:30,000 in PBSC+1-2 mM DTT, was added to the wells and the plates were incubated for approximately 45 min. After washing as described above, 50 μl ImmunoPure TMB substrate (Thermo Scientific, cat. no. 34021) was added to the wells and the plates were treated according to the manufacturer's recommendations.” left out

HMGB1(red) = target: T5, HMGB1(red) (Rattus norvegicus, UniProt P63159); assay: In vitro cell migration assay, mouse 3T3 fibroblasts in modified Boyden chambers; assay type: cell-based; conditions: 1 nM or 0.2 nM HMGB1(red), 3 h
T5 construct: purchased HMGBiotech Srl, Milano, Italy
T5 sequence (P63159 2-215): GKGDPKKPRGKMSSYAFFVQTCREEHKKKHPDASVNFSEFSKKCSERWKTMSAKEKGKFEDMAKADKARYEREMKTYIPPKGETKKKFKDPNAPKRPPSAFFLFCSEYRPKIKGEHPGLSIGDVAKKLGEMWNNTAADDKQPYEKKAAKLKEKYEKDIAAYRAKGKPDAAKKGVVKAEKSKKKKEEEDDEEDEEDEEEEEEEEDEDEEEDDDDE
Protocol: In vitro cell migration assay: Mouse 3T3 fibroblast cells were used to assess the ability of His6-tagged Z variants to inhibit migration of cells in response to HMGB1 in modified Boyden Chambers (Neuroprobe Inc.). Mouse 3T3 fibroblasts were grown in Dulbecco's Modified Eagle Medium (DMEM, Gibco) with 10% fetal bovine serum (FBS, Gibco), 1% L-glutamine and antibiotics (Lonza). Prior to use, cells were centrifuged and the pellet was resuspended in DMEM (without FBS) without further washing. Polycarbonate filters (Neuroprobe Inc.; #PFA8) with 8 μm pores were coated with human fibronectin (Roche). Serum-free DMEM (negative control), DMEM containing 1 nM HMGB1(red) (positive control), and DMEM containing 1 nM HMGB1(red) plus Z variants ZH 01 (SEQ ID NO:1) and ZH 31 (SEQ ID NO:31) at a concentration of 10 or 100 ng/ml, were placed in the lower wells. A control polypeptide, Z04726 (SEQ ID NO:54), binding an irrelevant target, was used as negative control. boxA(red) (SEQ ID NO:51), a known competitor of HMGB1, was used at 1 nM concentration as positive control for inhibition of HMGB1 induced cell migration. Fibronectin-coated filters were placed so as to separate the lower and the upper wells, and 50000 3T3 cells were placed in the upper wells. The chambers were kept at 37° C. in a 5% CO2, humidified incubator for 3 h. The cells were then fixed with 100% ethanol (Sigma) and stained 20 minutes with Giemsa Stain (Sigma). The cells on the lower side of the filter were counted with a Leica DM LS2 microscope at 400× magnification.
ZH 30 was tested in a migration assay by performing an extended titration to allow IC50 calculations with 0.2 nM HMGB1(red) and lower concentrations of Z variants (0.1 ng/ml, 0.3 ng/ml, 1 ng/ml). A control polypeptide, ZZA4014 (SEQ ID NO:49), binding an irrelevant target and cloned and produced as described in Example 4, was used as negative control in this set up.
In vitro cell migration assay: The migration assay was performed essentially as described for monomeric Z variants in Example 3. One monomeric Z-ABD polypeptide, ZA3812 (SEQ ID NO:35); five heterodimeric polypeptides, ZZA4010 (SEQ ID NO:38), ZZA4011 (SEQ ID NO:39), ZZA4012 (SEQ ID NO:40), ZZA4013 (SEQ ID NO:41) and ZAZ4015 (SEQ ID NO:42); and three homodimeric polypeptides, ZZA4053 (SEQ ID NO:43), ZZA4054 (SEQ ID NO:44) and AZ4057 (SEQ ID NO:45), were tested in a migration assay by performing an extended titration, to allow IC50 calculations with 0.2 nM HMGB1 and reducing doses of polypeptides (0.1 nM, 0.3 nM, 1 nM). ZZA4014 (SEQ ID NO:49), binding an irrelevant target, was included as a negative control.

T3 sequence (P09429 with tags, fused parts or gaps): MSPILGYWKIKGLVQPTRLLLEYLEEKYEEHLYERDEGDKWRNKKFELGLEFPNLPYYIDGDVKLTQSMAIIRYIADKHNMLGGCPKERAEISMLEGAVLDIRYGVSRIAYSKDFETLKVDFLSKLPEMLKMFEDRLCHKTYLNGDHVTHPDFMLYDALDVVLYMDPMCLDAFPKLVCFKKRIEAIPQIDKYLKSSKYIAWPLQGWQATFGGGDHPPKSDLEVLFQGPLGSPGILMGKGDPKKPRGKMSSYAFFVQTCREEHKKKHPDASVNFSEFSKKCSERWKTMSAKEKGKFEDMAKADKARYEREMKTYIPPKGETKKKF
T4 sequence (P09429 with tags, fused parts or gaps): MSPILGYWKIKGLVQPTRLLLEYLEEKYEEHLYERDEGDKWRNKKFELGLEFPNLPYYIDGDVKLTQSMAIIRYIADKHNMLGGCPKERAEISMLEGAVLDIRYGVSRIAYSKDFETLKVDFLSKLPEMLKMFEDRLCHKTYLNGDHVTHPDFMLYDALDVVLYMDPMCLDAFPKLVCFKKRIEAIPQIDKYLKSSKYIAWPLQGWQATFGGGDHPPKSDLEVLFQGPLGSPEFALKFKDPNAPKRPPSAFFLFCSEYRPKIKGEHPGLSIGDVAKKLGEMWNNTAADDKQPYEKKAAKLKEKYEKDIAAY

ZH02: HMGB1 A-box binding Z variant, 58 amino acid residues, from primary phage display selection (VDAKYAKEAEDAMHEILWLPNLTWEQQKAFIYKLEDDPSQSSELLSEAKKLNDSQAPK; Engineered HMGB1 binding polypeptide)
ELISA response against b-boxA(disulfide) (b-boxA(disulfide)): 2.02 AU
ELISA response against b-HMGB1(disulfide) (b-HMGB1(disulfide)): 1.17 AU
Tm (° C.) [1]: 58 °C
average ELISA response against b-GST-boxA(red) (b-GST-boxA(red)): 0.2 AU

ZH03: HMGB1 A-box binding Z variant, 58 amino acid residues, from primary phage display selection (VDAKYAKEAWQAMEEILWLPNLTNTQQLAFIYKLEDDPSQSSELLSEAKKLNDSQAPK; Engineered HMGB1 binding polypeptide)
ELISA response against b-boxA(disulfide) (b-boxA(disulfide)): 1.17 AU
ELISA response against b-HMGB1(disulfide) (b-HMGB1(disulfide)): 2.96 AU
Tm (° C.) [1]: 54 °C
average ELISA response against b-GST-boxA(red) (b-GST-boxA(red)): 0.6 AU

ZH30: HMGB1 B-box binding Z variant, 58 amino acid residues (VDAKYAKEAWSAEQEIWDLPNLTLQQFQAFIMKLLDDPSQSSELLSEAKKLNDSQAPK; Engineered HMGB1 binding polypeptide)
Tm (° C.) [1]: 53 °C
ELISA response against b-GST-boxB(red) (b-GST-boxB(red)): 0.14 AU
inhibition of HMGB1 induced cell migration (HMGB1(red)): inhibit HMGB1 induced cell migration

ZH31: HMGB1 B-box binding Z variant, 58 amino acid residues (VDAKYAKEAWLAEQEIWQLPNLTEAQFQAFILKLIDDPSQSSELLSEAKKLNDSQAPK; Engineered HMGB1 binding polypeptide)
Tm (° C.) [1]: 57 °C
ELISA response against b-GST-boxB(red) (b-GST-boxB(red)): 0.47 AU
inhibition of HMGB1 induced cell migration (HMGB1(red)): inhibit HMGB1 induced cell migration
